# Changes are numbered by the printed parent chain. These are yes or no findings as the source states them, for the method shown. Binding seen in cells or lysates may run through a third protein. Some binding calls cover weakened binding; strength is not graded here. Sequences can lack the tags named with a protein.
# Chains of the proteins cited; added tags and fusions are not shown.
# UniProt Q7Z2Z1: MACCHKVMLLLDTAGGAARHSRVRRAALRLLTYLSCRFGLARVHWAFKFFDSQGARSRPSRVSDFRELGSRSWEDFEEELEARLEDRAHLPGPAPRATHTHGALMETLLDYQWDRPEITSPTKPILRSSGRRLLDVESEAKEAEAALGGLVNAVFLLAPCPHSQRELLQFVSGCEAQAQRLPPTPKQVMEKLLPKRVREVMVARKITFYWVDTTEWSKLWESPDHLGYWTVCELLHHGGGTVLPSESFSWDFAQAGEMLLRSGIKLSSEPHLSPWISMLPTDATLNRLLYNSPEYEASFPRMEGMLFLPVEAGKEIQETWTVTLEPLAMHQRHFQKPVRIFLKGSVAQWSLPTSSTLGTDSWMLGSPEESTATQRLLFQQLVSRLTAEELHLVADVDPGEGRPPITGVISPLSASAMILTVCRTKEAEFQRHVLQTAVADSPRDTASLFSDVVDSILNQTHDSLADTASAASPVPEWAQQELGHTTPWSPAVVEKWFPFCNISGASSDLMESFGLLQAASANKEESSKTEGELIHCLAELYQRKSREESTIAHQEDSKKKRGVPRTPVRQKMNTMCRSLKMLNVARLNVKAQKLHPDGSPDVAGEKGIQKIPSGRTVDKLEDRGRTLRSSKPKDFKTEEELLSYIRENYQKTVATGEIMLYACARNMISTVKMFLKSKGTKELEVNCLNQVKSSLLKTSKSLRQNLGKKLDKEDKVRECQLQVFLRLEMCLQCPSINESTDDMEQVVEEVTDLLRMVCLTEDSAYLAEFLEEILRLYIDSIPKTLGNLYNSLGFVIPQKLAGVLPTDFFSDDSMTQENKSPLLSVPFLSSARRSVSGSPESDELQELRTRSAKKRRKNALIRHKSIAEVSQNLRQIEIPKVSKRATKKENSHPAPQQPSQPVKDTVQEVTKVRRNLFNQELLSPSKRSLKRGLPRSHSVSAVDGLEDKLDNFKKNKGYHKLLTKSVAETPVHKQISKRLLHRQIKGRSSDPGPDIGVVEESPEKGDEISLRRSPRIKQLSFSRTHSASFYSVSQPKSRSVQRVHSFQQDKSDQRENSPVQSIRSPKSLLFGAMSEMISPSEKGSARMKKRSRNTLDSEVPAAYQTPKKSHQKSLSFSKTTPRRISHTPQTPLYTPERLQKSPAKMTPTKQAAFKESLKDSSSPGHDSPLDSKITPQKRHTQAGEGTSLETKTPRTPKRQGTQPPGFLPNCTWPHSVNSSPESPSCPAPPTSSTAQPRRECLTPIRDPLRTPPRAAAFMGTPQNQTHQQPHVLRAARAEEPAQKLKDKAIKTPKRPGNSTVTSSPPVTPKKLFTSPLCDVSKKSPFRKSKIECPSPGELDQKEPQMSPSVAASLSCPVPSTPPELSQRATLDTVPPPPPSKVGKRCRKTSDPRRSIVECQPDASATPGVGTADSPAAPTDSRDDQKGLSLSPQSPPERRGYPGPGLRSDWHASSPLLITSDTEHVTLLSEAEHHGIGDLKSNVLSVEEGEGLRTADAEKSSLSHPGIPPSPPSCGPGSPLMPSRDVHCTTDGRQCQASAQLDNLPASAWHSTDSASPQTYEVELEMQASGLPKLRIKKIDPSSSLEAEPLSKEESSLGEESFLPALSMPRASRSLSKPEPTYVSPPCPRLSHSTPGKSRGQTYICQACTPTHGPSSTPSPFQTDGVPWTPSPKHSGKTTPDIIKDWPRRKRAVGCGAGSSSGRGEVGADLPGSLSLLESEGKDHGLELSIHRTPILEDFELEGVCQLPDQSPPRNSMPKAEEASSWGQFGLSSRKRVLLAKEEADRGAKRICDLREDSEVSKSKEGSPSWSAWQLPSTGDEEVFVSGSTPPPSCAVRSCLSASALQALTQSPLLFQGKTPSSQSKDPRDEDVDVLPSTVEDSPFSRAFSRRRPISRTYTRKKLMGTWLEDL
# UniProt P49336: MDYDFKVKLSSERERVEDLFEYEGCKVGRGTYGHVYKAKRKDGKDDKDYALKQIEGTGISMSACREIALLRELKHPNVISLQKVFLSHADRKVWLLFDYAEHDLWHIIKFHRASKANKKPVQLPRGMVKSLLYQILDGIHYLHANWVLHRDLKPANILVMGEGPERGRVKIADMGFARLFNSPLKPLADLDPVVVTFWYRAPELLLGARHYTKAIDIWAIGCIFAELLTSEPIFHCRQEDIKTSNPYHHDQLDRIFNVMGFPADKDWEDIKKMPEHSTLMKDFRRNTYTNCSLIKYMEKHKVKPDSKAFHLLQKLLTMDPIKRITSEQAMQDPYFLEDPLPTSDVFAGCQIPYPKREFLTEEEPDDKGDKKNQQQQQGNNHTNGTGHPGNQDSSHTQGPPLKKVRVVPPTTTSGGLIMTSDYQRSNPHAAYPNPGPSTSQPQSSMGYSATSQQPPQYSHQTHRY
# Columns and labels:
# Assay in all cases: co-IP; 293T transiently transfected with C-terminally 3×Flag-tagged MTBP; anti-FLAG antibody on Protein G Dynabeads, lysis buffer 20 mM HEPES, 150 mM NaCl, 10% glycerol, 0.1% Triton X-100, 1 h at 4°C; endogenous Treslin/TICRR and Cdk8 by immunoblot
# [1] = target: T1, MTBP D313A, C-terminally 3×Flag-tagged (293T) (human) (UniProt Q96DY7)
# T1 sequence: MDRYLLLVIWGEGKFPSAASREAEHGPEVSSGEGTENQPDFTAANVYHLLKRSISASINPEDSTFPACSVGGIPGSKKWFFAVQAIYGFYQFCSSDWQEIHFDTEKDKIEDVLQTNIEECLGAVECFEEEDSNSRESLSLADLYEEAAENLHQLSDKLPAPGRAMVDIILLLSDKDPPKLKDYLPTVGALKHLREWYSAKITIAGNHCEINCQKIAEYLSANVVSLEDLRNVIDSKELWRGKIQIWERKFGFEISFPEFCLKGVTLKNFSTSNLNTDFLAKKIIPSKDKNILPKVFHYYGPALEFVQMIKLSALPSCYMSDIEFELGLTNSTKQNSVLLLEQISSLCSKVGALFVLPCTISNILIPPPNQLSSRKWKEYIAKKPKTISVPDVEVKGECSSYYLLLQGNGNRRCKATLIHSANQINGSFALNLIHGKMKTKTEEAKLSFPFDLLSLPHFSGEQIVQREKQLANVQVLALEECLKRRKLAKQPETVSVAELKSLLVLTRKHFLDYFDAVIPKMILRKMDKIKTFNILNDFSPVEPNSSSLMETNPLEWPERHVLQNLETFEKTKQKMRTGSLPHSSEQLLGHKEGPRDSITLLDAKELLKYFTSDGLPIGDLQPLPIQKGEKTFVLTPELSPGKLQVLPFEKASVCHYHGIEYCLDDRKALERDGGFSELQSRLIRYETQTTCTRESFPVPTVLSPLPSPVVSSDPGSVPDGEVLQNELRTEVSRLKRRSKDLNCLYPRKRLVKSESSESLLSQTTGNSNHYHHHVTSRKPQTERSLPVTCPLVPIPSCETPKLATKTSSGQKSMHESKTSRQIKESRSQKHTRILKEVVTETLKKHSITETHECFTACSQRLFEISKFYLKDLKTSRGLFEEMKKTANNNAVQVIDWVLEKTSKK
# [2] = target: T2, MTBP-5m, C-terminally 3×Flag-tagged (293T) (human) (UniProt Q96DY7)
# T2 sequence: T1 sequence with V306D, I309D, L314D, P315D
# [3] = target: T3, MTBP-m1–6, C-terminally 3×Flag-tagged (293T) (human) (UniProt Q96DY7)
# T3 sequence: T1 sequence with A313D, C413A, A415Q, Q423A, I424Q, N425A, G426Q
Substance,binding [1],binding [2],binding [3]
"Treslin/TICRR (TopBP1-interacting replication stimulating protein/TopBP1-interacting checkpoint and replication regulator), endogenous (from UniProt Q7Z2Z1 1-1910)",binds,no binding,no binding
"Cdk8 (cyclin-dependent kinase 8), endogenous (from UniProt P49336 1-464) (enzyme)",binds,binds,binds

# — PMC6377148
